Molecular target: T1, PID-130 (trispecific Her2/CD3/PD-1 MIAC; Blinatumomab_CD3 aglycosylated IgG1 with trastuzumab scFv at the …)
T1 construct: also called α-Her2/α-CD3/α-PD-1 MIAC; PID130 [Her2/CD3/PD-1]
Assay: BLI (ForteBio Octet); PD-1 Fc on Protein A sensors, 100 nM construct; column 'Affinity (nM)'
Description: Antigen binding of MIAC constructs were analyzed using ForteBio Octet. […] All antigens were reconstituted in PBS at the final concentration of 0.25 ug/ul. […] Association proceeded by dipping sensors in 100 nM MIAC constructs for 5 minutes and disassociation occurred in blank kinetics buffer for 5 minutes. For CD3 epsilon binding, antigen was immobilized on Ni-NTA sensors; association was performed in 50 nM MIAC constructs. Binding data were analyzed using ForteBio Data Analysis 9.0 software.

Kd: 0.37 nM
B1: Recombinant human PD-1 Fc fusion protein (Sino Biological) (Fc fusion)
chain: not shown
notes: not shown: Fc part of a bought fusion protein

Reference: patent publication US20190031785A1 (COMPASS THERAPEUTICS, published 2019)
